Like-named read-outs stand apart in the source and are kept apart here. Results are given in words; binding and its absence hold for the method and conditions named. In cells and extracts the contact can be indirect. Some binding calls cover weakened binding; strength is not graded here. For some assays here: Where a sequence is shown, tags or fusion partners need not be part of it.
Legend:
Experiment in all cases: co-IP; COS-7 cells co-transfected with GFP-GluN2B (WT, 5CS or 3CS), HA-GluN1-1A and HIP14-Flag or HIP14L-Flag, 36 h; lysis in 150 mM NaCl, 50 mM Tris pH 7.4, 5 mM EGTA, 0.2% SDS, 1% Triton X-100; precipitated with anti-GFP antibody at 4°C overnight, blot probed with anti-Flag
[1] = target: GFP-tagged GluN2B 3CS (Cys cluster I palmitoylation-deficient mutant) (UniProt Q00960)
[2] = target: GFP-tagged GluN2B 5CS (Cys cluster II palmitoylation-deficient mutant) (UniProt Q00960)
GFP-tagged GluN2B WT = GFP-tagged GluN2B WT (UniProt Q00960)
[3] = target: GFP-tagged GluN2B 3CS (Cys cluster I palmitoylation-deficient mutant) (UniProt Q00960); remark: listed apart in the source
[4] = target: GFP-tagged GluN2B 5CS (Cys cluster II palmitoylation-deficient mutant) (UniProt Q00960); remark: listed apart in the source

Amino acid sequences for entries named in this document (tags omitted). A change or cut given only in a name is not applied to a line headed by its entry. Chains listed by the source or under a name are the forms on record and can include a tag or linker. Residues count along the entry.
GFP-tagged GluN2B WT (Q00960, residues 27-1482): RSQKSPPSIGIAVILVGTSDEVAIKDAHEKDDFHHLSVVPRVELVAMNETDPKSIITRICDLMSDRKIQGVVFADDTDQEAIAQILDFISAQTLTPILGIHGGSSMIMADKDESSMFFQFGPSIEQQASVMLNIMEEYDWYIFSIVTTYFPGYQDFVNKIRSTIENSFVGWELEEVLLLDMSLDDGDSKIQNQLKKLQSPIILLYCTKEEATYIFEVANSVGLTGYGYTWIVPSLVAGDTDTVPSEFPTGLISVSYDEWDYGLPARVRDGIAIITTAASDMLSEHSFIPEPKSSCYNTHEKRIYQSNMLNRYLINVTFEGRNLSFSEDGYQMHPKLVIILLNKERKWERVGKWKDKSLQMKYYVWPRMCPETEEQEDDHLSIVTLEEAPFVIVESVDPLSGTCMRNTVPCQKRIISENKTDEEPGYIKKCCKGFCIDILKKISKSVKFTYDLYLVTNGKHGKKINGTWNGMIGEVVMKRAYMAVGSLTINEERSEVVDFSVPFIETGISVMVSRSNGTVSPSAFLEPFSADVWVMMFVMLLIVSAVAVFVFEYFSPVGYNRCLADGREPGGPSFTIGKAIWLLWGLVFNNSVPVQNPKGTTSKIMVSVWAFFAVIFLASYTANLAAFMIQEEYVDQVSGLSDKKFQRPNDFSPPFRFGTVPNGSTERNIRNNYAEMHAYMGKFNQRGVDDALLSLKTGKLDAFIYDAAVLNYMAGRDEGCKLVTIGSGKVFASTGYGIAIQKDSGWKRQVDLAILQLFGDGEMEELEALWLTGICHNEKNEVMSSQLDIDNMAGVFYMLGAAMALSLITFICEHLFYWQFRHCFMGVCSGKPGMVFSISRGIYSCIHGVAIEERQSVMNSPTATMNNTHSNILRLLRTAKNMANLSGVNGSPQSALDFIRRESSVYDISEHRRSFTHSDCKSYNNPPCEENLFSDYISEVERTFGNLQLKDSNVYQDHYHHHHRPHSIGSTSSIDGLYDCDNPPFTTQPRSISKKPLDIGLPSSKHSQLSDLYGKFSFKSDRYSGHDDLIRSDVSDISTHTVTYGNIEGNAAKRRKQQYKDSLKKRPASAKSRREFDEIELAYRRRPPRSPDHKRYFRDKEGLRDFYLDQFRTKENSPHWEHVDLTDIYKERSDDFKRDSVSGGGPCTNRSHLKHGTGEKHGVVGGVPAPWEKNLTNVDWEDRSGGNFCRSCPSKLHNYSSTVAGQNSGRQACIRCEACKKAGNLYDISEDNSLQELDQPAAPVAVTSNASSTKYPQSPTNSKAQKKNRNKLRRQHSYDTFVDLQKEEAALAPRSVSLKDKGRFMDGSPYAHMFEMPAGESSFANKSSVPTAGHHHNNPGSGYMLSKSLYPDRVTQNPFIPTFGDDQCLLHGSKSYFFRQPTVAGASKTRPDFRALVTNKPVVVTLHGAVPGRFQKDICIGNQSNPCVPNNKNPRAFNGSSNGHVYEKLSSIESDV
GFP-tagged GluN2B 3CS (Cys cluster I palmitoylation-deficient mutant) (Q00960, form named): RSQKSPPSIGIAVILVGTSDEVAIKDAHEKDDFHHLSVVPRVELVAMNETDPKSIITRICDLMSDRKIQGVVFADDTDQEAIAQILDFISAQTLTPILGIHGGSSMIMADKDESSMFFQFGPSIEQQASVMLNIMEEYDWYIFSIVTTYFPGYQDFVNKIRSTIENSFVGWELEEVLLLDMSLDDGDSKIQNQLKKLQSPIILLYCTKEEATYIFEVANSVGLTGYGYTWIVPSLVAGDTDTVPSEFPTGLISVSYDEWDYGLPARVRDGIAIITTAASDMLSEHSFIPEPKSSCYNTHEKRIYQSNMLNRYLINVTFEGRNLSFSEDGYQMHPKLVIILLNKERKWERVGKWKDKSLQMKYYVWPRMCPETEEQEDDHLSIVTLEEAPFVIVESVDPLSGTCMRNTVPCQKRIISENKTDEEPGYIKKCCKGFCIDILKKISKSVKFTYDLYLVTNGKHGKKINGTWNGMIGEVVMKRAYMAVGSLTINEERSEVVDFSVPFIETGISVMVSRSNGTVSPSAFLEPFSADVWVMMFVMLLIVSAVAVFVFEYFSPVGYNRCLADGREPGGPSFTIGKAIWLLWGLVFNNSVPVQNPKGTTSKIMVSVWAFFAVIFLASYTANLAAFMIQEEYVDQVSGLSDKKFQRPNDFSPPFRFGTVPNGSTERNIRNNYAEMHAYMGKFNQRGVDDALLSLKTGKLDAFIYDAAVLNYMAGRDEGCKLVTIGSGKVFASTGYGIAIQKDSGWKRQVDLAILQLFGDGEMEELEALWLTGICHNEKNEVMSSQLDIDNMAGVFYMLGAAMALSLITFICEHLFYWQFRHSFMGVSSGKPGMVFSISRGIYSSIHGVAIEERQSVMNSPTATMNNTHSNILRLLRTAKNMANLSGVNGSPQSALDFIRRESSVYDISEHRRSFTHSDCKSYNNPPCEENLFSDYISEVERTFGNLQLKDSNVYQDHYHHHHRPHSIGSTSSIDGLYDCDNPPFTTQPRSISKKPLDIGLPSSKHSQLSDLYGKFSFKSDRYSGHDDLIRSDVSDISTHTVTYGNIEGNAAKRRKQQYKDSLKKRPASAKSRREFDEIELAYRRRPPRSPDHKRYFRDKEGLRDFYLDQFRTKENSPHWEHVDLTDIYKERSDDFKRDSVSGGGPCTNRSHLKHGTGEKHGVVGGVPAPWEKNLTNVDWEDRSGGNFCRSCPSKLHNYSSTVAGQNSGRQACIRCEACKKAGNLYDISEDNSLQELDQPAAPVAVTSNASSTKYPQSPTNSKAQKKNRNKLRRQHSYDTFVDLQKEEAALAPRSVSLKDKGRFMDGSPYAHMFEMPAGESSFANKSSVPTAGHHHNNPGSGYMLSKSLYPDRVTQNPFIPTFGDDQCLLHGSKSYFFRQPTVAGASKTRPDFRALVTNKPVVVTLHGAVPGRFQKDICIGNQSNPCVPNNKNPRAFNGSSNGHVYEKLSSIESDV
GFP-tagged GluN2B 5CS (Cys cluster II palmitoylation-deficient mutant) (Q00960, form named): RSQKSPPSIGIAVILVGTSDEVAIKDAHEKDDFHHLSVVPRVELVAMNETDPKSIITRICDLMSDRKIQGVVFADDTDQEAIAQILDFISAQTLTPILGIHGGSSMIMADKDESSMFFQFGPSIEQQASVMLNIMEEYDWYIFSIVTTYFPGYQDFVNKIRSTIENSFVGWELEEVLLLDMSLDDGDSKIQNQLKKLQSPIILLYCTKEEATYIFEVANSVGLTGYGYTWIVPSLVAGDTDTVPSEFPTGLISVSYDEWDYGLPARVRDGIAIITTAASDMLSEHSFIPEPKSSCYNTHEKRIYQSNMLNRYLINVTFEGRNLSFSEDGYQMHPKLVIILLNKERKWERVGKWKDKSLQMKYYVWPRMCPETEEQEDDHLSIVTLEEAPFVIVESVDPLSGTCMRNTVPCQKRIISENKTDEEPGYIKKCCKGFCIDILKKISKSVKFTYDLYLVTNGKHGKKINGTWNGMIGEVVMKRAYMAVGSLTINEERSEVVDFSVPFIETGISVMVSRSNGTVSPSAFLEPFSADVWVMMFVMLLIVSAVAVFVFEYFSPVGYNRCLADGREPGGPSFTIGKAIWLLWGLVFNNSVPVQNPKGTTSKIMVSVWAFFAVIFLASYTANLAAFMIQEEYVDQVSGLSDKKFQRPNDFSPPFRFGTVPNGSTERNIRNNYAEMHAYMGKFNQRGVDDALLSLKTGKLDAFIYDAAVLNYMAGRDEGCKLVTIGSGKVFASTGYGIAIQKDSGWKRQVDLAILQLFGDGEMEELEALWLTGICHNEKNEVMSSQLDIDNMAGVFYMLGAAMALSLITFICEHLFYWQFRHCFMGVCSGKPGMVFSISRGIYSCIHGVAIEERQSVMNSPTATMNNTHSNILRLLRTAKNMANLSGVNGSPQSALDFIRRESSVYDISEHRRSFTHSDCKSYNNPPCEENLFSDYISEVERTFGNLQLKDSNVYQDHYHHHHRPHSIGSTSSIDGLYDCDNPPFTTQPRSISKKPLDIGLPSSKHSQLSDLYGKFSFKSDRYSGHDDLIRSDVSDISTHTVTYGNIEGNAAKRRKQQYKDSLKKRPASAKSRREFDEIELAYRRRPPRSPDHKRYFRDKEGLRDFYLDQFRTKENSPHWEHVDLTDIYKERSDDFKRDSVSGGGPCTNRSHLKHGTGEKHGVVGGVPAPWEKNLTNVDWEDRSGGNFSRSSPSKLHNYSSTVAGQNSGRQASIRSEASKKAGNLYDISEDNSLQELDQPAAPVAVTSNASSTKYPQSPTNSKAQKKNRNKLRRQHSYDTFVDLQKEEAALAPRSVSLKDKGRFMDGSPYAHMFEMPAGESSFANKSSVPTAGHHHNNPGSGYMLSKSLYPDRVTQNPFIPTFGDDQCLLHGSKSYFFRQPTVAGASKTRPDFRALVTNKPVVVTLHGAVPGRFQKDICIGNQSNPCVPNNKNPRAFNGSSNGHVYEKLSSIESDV
UniProt Q8IUH5: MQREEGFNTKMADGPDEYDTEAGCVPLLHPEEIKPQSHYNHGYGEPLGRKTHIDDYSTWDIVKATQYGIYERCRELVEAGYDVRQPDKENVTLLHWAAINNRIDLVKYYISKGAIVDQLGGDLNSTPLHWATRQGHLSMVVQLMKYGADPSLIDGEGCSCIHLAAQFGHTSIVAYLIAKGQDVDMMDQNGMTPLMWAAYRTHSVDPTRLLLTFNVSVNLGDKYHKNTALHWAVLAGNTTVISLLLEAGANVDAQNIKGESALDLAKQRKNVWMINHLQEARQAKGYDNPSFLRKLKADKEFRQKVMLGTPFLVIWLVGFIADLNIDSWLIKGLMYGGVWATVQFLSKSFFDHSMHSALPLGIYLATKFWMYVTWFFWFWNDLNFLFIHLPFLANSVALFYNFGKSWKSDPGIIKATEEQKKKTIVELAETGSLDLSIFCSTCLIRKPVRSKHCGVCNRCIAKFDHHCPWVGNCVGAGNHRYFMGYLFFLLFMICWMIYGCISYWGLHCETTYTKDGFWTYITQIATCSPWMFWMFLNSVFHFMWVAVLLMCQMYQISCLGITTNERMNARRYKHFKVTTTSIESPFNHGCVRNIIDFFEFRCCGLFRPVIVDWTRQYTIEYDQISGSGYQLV

HIP14-Flag (huntingtin-interacting protein 14, zDHHC17) (from UniProt Q8IUH5 1-632) (enzyme)
binding [1]: binds
binding [2]: binds
binding (GFP-tagged GluN2B WT): binds

B1: HIP14L-Flag (huntingtin-interacting protein 14-like, zDHHC13) (enzyme, UniProt Q8IUH4 1-622)
chain: MEGPGLGSQCRNHSHGPHPPGFGRYGICAHENKELANAREALPLIEDSSNCDIVKATQYGIFERCKELVEAGYDVRQPDKENVSLLHWAAINNRLDLVKFYISKGAVVDQLGGDLNSTPLHWAIRQGHLPMVILLLQHGADPTLIDGEGFSSIHLAVLFQHMPIIAYLISKGQSVNMTDVNGQTPLMLSAHKVIGPEPTGFLLKFNPSLNVVDKIHQNTPLHWAVAAGNVNAVDKLLEAGSSLDIQNVKGETPLDMALQNKNQLIIHMLKTEAKMRANQKFRLWRWLQKCELFLLLMLSVITMWAIGYILDFNSDSWLLKGCLLVTLFFLTSLFPRFLVGYKNLVYLPTAFLLSSVFWIFMTWFILFFPDLAGAPFYFSFIFSIVAFLYFFYKTWATDPGFTKASEEEKKVNIITLAETGSLDFRTFCTSCLIRKPLRSLHCHVCNCCVARYDQHCLWTGRCIGFGNHHYYIFFLFFLSMVCGWIIYGSFIYLSSHCATTFKEDGLWTYLNQIVACSPWVLYILMLATFHFSWSTFLLLNQLFQIAFLGLTSHERISLQKQSKHMKQTLSLRKTPYNLGFMQNLADFFQCGCFGLVKPCVVDWTSQYTMVFHPAREKVLRSV
binding [3]: binds weakly
binding [4]: no binding

From PMC6393405
